# Experimental data as given in PubChem BioAssay AID504339 (National Center for Advancing Translational Sciences (NCATS), 2011).
# Among all 390,000 compounds or so, about 17,000 (4.4%) were called active. Inconclusive results, whose numbers are uncertain, are shown with a selection of clear calls. Calls follow the shape of the dose curve; as a rule, active = well fitted inhibition curve with a large enough effect; inconclusive = small, poorly fitted or top-dose-only effect; inactive = no such curve, though single readings can be large or run the other way. Potencies of inconclusive entries are doubtful fits and often do not repeat.
# Target: Lysine-specific demethylase 4A (Homo sapiens) (UniProt O75164)
# UniProt O75164, sequence (O75164 whole entry, looked up, the tested form may be a part): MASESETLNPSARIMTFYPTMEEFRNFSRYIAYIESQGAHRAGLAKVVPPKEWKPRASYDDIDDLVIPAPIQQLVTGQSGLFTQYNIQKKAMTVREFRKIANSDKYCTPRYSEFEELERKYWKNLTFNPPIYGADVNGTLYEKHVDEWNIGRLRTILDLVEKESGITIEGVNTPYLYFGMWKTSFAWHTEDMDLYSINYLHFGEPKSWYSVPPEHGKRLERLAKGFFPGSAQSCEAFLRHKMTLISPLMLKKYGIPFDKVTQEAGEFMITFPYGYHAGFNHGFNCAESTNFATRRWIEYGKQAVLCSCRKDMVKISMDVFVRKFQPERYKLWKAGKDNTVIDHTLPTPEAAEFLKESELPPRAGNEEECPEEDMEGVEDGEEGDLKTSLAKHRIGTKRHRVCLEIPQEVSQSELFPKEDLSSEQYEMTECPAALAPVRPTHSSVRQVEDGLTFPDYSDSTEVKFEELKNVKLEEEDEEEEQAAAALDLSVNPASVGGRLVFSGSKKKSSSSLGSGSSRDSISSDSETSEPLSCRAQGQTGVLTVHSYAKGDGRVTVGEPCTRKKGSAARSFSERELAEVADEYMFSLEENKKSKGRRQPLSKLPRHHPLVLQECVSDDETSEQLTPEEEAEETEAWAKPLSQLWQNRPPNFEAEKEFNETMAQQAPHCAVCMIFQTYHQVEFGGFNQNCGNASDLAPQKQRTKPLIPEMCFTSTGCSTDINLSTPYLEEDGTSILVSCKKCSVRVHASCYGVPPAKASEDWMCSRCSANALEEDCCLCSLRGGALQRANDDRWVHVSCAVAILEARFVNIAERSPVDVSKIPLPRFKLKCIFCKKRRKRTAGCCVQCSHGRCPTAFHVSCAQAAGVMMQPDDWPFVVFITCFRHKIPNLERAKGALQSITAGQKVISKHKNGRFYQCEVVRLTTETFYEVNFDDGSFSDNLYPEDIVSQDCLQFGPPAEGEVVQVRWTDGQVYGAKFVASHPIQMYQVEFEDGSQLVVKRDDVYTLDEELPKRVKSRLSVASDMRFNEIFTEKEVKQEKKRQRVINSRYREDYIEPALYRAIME
# Experiment: qHTS Assay for Inhibitors of JMJD2A-Tudor Domain; also: nearly all actives have a fitted effect of over 50% in size
# Details: AlphaScreen JMJD2A-Tudor / H3K4me3 peptide binding; series mostly up to 114 µM
# Potency is read from the fitted curve at half-maximal effect; tags tell the direction and shape of the fitted curve.
row,Structure (SMILES),Potency
1,Cc1ccc(S(=O)(=O)Cc2ccc(C(=O)N3CCN(c4cccc(Cl)c4)CC3)o2)cc1,"inconclusive: 44.7 µM [inhibitor, full curve, poor fit]"
2,Cc1nnc(N=c2ssnc2Cl)o1,active: 44.7 µM
3,COCCNC(=O)c1cc2oc3ccccc3c2n1C,"inconclusive: 44.7 µM [inhibitor, partial curve]"
4,Cc1ccc(NC(=O)c2cc(S(=O)(=O)N3CCc4ccccc43)cn2C)c(Cl)c1,inactive
5,CCOc1ccc(C(=O)c2cc([N+](=O)[O-])ccc2Cl)cc1,"inconclusive: 50.1 µM [inhibitor, partial curve]"
6,CN1C(=O)/C(=C2\SC(=S)N(CCCCCC(=O)O)C2=O)c2ccccc21,"inconclusive: 39.8 µM [inhibitor, partial curve, poor fit]"
7,Cc1ccnc2nc(C(=O)Nc3nccs3)nn12,active: 10 µM
8,Cc1cc2oc(=O)cc(CSc3nnc(-c4cccs4)o3)c2cc1C(C)C,active: 89.1 µM
9,COC(=O)N/N=C/c1cc(Cl)c(OCc2ccccc2F)c(OC)c1,"inconclusive: 25.1 µM [inhibitor, single point]"
10,CC12CCC(=O)N1C(C(=O)Nc1cc(S(=O)(=O)N3CCCCCC3)ccc1OCC(F)(F)F)CS2 (stereo unspecified),inactive
11,CCC(=O)N1CCc2cc(S(=O)(=O)NC(CC(C)C)C(=O)NCCc3ccccc3)ccc21 (stereo unspecified),"inconclusive: 3.16 µM [inhibitor, partial curve, poor fit]"
12,COc1ccccc1CCC(=O)Nc1cc(S(=O)(=O)N2CCCCC2)ccc1N1CCN(C)CC1,"inconclusive: 28.2 µM [inhibitor, partial curve]"
13,COc1ccc(N=C2SC(CC(=O)Nc3ccccc3OC)C(=O)N2Cc2ccco2)cc1 (stereo unspecified),"inconclusive: 5.01 µM [inhibitor, full curve, poor fit]"
14,NC(=S)N/N=C/c1ncc(C(F)(F)F)cc1Cl,"inconclusive: 63.1 µM [inhibitor, partial curve, poor fit]"
15,CCOc1cc2[nH]c(=S)n(CCCN(CC)CC)c(=O)c2cc1OCC,"inconclusive: 25.1 µM [inhibitor, full curve]"
16,O=C(COc1ccccc1-c1nc(-c2ccccc2)no1)Nc1cccc([N+](=O)[O-])c1,"inconclusive: 50.1 µM [inhibitor, partial curve]"
17,O=C(CN1CCCc2ccccc21)NCCc1ccc(Cl)cc1,"inconclusive: 63.1 µM [inhibitor, partial curve]"
18,Cc1ccc(NS(=O)(=O)c2cc3c(cc2-c2ccco2)NC(=O)CO3)cc1C,"inconclusive: 89.1 µM [inhibitor, single point]"
19,Cn1c(SCc2cc(=O)n3cc(Br)ccc3n2)nnc1C1COc2ccccc2O1 (stereo unspecified),active: 50.1 µM
20,O=C(COC(=O)Cc1ccccc1F)Nc1ccccc1[N+](=O)[O-],"inconclusive: 50.1 µM [inhibitor, partial curve]"
21,Cc1cc(C(=O)NP(=O)(N2CCOCC2)N2CCOCC2)c(C)n1-c1ccc(N(C)C)cc1,"inconclusive: 89.1 µM [inhibitor, partial curve]"
22,CCn1cc(/C=C(\NC(=O)c2ccc(OC)c(OC)c2)C(=O)N2CCN(C)CC2)c2ccccc21,"inconclusive: 17.8 µM [inhibitor, full curve]"

row,Structure (SMILES),Potency
1,CC(=O)/C(=N\Nc1ccccc1)Sc1cccc2cccnc12,"inconclusive: 39.8 µM [inhibitor, partial curve]"
2,O=C(Cc1ccccc1)NNC(=O)c1cnccn1,"inconclusive: 89.1 µM [inhibitor, single point]"
3,CCn1c(=O)cc(SCC(=O)NCc2ccc(OC)cc2OC)c2ccccc21,inactive
4,CCc1ccccc1NC(=S)N(Cc1cccc(C)c1)c1cccnc1,inactive
5,CCC1=NN(C(=O)c2cccc([N+](=O)[O-])c2)C(O)(c2ccc(C)cc2)C1 (stereo unspecified),"inconclusive: 44.7 µM [inhibitor, partial curve]"
6,Cc1ccccc1N/N=C1\CCCNC1=O,"inconclusive: 56.2 µM [inhibitor, partial curve]"
7,CN(C)c1ccc(/C=N/NC(=O)C(=O)/C=C2\NC3(CCCC3)Cc3ccccc32)cc1,"inconclusive: 4.47 µM [inhibitor, partial curve, poor fit]"
8,O=C(c1ccc([N+](=O)[O-])o1)N1CCN(c2nc3c(F)cc(F)cc3s2)CC1,"inconclusive: 89.1 µM [inhibitor, partial curve]"
9,Cc1ccc2[nH]c(=O)c(C(c3nnnn3CC3CCCO3)N3CCCc4ccccc43)cc2c1 (stereo unspecified),"inconclusive: 35.5 µM [inhibitor, full curve]"
10,CCC(=O)c1ccc(OCC(=O)OCC(=O)NCC2CCCCC2)cc1,inactive
11,CCN(CC)c1ccc(NC(=S)NCC2CCCO2)cc1 (stereo unspecified),"inconclusive: 56.2 µM [inhibitor, partial curve]"
12,O=C(Nc1sc2c(c1C(=O)NCc1cccnc1)CCCC2)c1cc(=O)c2ccccc2o1,inactive
13,Cc1ccc(CCNC(=O)c2cc3c(s2)-c2c(C)cccc2OC3)cc1,"inconclusive: 89.1 µM [inhibitor, partial curve]"
14,O=C(Nc1ccc(S(=O)(=O)Nc2nccs2)cc1)c1nn(-c2ccc(F)cc2)ccc1=O,active: 56.2 µM
15,COc1ccccc1N1CCN(CCCCOc2ccc(F)cc2)CC1,"inconclusive: 44.7 µM [inhibitor, partial curve]"
16,Cc1ccc(Nc2ccc(C(F)(F)F)cc2[N+](=O)[O-])cc1,"inconclusive: 7.94 µM [inhibitor, full curve]"
17,Cc1noc(C)c1CSCC(=O)Nc1nc2ccc(S(C)(=O)=O)cc2s1,"inconclusive: 28.2 µM [inhibitor, single point]"
18,CC1(CCc2ccc3c(c2)OCO3)NCCc2c1[nH]c1ccccc21 (stereo unspecified),"inconclusive: 39.8 µM [inhibitor, partial curve]"
19,COc1ccc(N2CCN(/C(=N\S(=O)(=O)c3ccc(C)cc3)Nc3nc(C)cc(C)n3)CC2)cc1,"inconclusive: 100 µM [inhibitor, single point]"
20,O=C(O)c1ccc(NC2=C(n3nnc4ccccc43)C(=O)c3ccccc3C2=O)cc1,inactive
21,Oc1ccc(Cl)cc1CNCC1CCCO1 (stereo unspecified),active: 3.16 µM
22,COc1cc(C2c3sc(=O)[nH]c3SC3C(=O)N(c4ccc(Br)cc4)C(=O)C32)ccc1O (stereo unspecified),"inconclusive: 35.5 µM [inhibitor, partial curve]"

row,Structure (SMILES),Potency
1,COc1ccc(/C=N\NC(=O)c2cc(O)c(O)c(O)c2)cc1COc1ccc(C(=O)OCC(C)C)cc1,"inconclusive: 28.2 µM [inhibitor, full curve]"
2,COc1ccc(C(C(=O)NC2CCCC2)N(C(=O)CNC(=O)c2ccco2)c2cccnc2)cc1 (stereo unspecified),inactive
3,COC(=O)C1=C(C(=O)OC)[C@@H]2N(Cc3ccccc3)c3ccccc3[C@@]23C[C@@H](C(=O)OC)N(C(=O)NC(C)(C)C)C3=N1,"inconclusive: 12.6 µM [inhibitor, partial curve, poor fit]"
4,CCc1ccc(-c2cn(C3CCCCC3)c(=S)[nH]2)cc1,active: 28.2 µM
5,CCN(CC)S(=O)(=O)c1cc(C(=O)Nc2ccccc2[N+](=O)[O-])ccc1Cl,"inconclusive: 15.8 µM [inhibitor, full curve]"
6,CCCCCCSc1ccc([C@H]2N[C@@](CC(C)C)(C(=O)OC)[C@H]3C(=O)N(C)C(=O)[C@@H]23)cc1OC,"inconclusive: 22.4 µM [inhibitor, full curve, poor fit]"
7,CCOC(=O)c1cccc(NC(=O)c2cc3ccccn3n2)c1,inactive
8,CCOc1ccccc1CNC(=O)C1CCN(c2nnc(-n3c(C)ccc3C)s2)CC1,inactive
9,CC1CCCC(C)N1C(=O)COC(=O)/C=C/c1ccc(Br)o1 (stereo unspecified),active: 20 µM
10,O=C(c1ccc(C(=O)N2CCN(c3ccccc3F)CC2)nc1)N1CCN(c2ccccc2F)CC1,active: 79.4 µM
11,Nc1ccc(Nc2nc3ccccc3[nH]2)cc1,active: 56.2 µM
12,COC(=O)c1cn(C(=O)c2cc(OC)cc(OC)c2)c2ccccc12,inactive
13,Cc1cccc(NS(=O)(=O)c2ccc3[nH]c4c(c3c2)CCCCCC4)c1,"inconclusive: 39.8 µM [inhibitor, partial curve]"
14,COc1ccc(N2CCN(Cc3csc(C)c3-c3ccc(C)cc3)CC2)cc1,active: 12.6 µM
15,CC(C)(C)C(=O)NC(=S)Nc1ccccc1C(N)=O,"inconclusive: 28.2 µM [inhibitor, partial curve]"
16,COc1cc(OC)cc(C(=O)Nc2ccc([N+](=O)[O-])cn2)c1,"inconclusive: 28.2 µM [inhibitor, single point]"
17,COC(C(=O)C(O)C(C)O)C1Cc2cc3cc(OC4CC(OC5CC(O)C(O)C(C)O5)C(O)C(C)O4)c(C)c(O)c3c(O)c2C(=O)C1OC1CC(OC2CC(OC3CC(O)C(OC)C(C)O3)C(O)C(C)O2)C(O)C(C)O1 (stereo unspecified),"inconclusive: 4.47 µM [inhibitor, full curve, poor fit]"
18,N#CC(c1ccc([N+](=O)[O-])cc1)C(CC(=O)c1ccccc1)c1ccccc1 (stereo unspecified),"inconclusive: 28.2 µM [inhibitor, full curve]"
19,COC(=O)N=Nc1c(O)n(Cc2ccccc2)c2ccccc12,inactive
20,CCCCN1CCc2nc(Nc3ccc(OC)cc3OC)ncc2C1,"inconclusive: 79.4 µM [inhibitor, partial curve]"
21,CCOC(=O)C1=C(C)NC(=O)NC1c1ccco1 (stereo unspecified),"inconclusive: 56.2 µM [inhibitor, partial curve]"
22,COC1=C(N)C(=O)c2nc(C)ccc2C1=O,"inconclusive: 25.1 µM [inhibitor, full curve, poor fit]"
